# Test results from a compilation of properties of binary mixtures (doi:10.1021/je900906j).
# Some of these densities may be calculated back from excess volumes.
# Assay: xn = mol fraction of the nth substance listed
# Conditions: 101.3 kPa
SMILES,"mass density (298.15 K, x2 = 0.3341)","mass density (298.15 K, x2 = 0.6005)","mass density (298.15 K, x2 = 0.8001)","mass density (298.15 K, x2 = 0.9)","mass density (303.15 K, x2 = 0.2291)","mass density (303.15 K, x2 = 0.3341)","mass density (303.15 K, x2 = 0.8001)","mass density (303.15 K, x2 = 0.9)","mass density (313.15 K, x2 = 0.2291)","mass density (313.15 K, x2 = 0.3341)","mass density (313.15 K, x2 = 0.5)","mass density (313.15 K, x2 = 0.8001)","mass density (313.15 K, x2 = 0.9)","mass density (298.15 K, x2 = 0.4991)","mass density (298.15 K, x2 = 0.6429)","mass density (303.15 K, x2 = 0.4991)","mass density (303.15 K, x2 = 0.6429)","mass density (313.15 K, x2 = 0.0923)","mass density (313.15 K, x2 = 0.4991)","mass density (313.15 K, x2 = 0.6429)"
CCCCCCCC[N+](C)(CCCCCCCC)CCCCCCCC.O=S(=O)([N-]S(=O)(=O)C(F)(F)F)C(F)(F)F + COC(C)=O,1098.9 kg/m3,1081.4 kg/m3,1048.5 kg/m3,1010.6 kg/m3,1100.2 kg/m3,1096.5 kg/m3,1046 kg/m3,1006.9 kg/m3,1093.2 kg/m3,1090.5 kg/m3,1080.5 kg/m3,1037 kg/m3,998.3 kg/m3,–,–,–,–,–,–,–
CCCCCCCC[N+](C)(CCCCCCCC)CCCCCCCC.O=S(=O)([N-]S(=O)(=O)C(F)(F)F)C(F)(F)F + CCOC(C)=O,–,–,–,–,–,–,–,–,–,–,–,–,–,1081.5 kg/m3,1062.7 kg/m3,1076.9 kg/m3,1058.2 kg/m3,1093.3 kg/m3,1069.3 kg/m3,1050.4 kg/m3
